Experimental data reported in article PMC9692854.
Results are given in words; binding and its absence hold for the method and conditions named. Some results given as binding are weak or reduced against the parent protein; the word gives no strength.

T1: Beauveria bassiana Rad10 (B. bassiana) (UniProt J4UQI9)
T1 sequence: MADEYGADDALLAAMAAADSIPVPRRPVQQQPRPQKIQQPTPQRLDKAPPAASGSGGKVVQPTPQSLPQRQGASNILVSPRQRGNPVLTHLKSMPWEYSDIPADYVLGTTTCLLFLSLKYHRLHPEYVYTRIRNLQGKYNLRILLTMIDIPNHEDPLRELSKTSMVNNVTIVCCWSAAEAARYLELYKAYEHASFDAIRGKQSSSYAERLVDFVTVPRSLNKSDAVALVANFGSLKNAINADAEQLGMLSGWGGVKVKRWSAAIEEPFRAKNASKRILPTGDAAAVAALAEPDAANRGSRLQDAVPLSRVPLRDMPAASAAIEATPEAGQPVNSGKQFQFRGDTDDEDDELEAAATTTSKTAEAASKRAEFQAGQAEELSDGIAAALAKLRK

T2: Beauveria bassiana photolyase Phr2 (B. bassiana) (UniProt J4WK53)
T2 sequence: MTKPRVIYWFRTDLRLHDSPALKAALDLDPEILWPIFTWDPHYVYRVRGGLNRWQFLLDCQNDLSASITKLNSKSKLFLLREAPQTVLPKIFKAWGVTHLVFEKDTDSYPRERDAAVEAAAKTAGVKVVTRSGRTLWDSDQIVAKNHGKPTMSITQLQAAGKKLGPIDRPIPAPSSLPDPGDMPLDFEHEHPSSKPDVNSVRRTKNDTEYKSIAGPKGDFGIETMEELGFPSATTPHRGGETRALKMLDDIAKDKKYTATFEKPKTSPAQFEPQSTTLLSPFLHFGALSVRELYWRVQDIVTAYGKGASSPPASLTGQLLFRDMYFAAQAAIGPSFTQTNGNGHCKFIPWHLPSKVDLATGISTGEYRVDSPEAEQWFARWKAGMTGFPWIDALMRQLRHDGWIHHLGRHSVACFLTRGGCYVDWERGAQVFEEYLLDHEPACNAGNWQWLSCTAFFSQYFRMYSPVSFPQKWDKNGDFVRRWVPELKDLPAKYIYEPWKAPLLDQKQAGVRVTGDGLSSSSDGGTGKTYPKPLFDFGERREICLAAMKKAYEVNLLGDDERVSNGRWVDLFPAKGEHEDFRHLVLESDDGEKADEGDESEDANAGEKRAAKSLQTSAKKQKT

T3: Beauveria bassiana Rad1 (B. bassiana) (UniProt J4VYF0)
T3 sequence: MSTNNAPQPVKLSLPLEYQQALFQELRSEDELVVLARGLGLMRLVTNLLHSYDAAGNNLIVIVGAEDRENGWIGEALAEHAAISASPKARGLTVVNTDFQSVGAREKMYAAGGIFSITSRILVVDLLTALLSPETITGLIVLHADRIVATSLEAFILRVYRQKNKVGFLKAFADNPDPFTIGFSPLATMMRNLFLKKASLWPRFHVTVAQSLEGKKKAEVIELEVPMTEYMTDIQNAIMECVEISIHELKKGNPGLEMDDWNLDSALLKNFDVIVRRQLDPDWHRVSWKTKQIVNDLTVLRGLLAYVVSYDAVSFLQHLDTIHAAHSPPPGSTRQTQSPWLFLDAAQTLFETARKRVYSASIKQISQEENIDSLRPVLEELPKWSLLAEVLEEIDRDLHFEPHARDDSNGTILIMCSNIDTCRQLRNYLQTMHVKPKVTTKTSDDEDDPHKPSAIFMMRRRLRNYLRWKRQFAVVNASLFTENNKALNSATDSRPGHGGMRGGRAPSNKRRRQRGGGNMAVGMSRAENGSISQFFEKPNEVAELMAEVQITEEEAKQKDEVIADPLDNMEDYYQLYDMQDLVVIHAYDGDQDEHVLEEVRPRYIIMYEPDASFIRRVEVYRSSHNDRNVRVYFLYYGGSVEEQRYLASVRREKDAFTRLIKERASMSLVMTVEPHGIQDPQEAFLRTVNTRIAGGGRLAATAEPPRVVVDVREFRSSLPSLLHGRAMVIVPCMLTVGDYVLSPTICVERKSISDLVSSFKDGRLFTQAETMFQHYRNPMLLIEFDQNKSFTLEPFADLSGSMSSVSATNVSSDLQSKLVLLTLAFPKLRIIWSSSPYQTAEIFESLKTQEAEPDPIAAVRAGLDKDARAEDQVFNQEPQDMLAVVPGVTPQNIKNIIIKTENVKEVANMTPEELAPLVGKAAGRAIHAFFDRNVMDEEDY

B1: Beauveria bassiana Rad1 (protein, UniProt J4VYF0 1-940)
chain: T3 sequence
B2: Beauveria bassiana Rad10 (protein, UniProt J4UQI9 1-392)
chain: T1 sequence

Assays:
Test in all cases: two-hybrid; ORFs in pGADT7 (AD, prey; strain Y187) or pGBKT7 (BD, bait; strain Y2HGold), pairwise mating; diploids grown 3 days at 30 °C on double-dropout (SDM/-Leu/-Trp/X-α-Gal/AbA) and quadruple-dropout (SDM/-Leu/-Trp/-Ade-His/X-α-Gal/AbA) medium; growth on quadruple dropout read as interaction
[1] = target: T1, Beauveria bassiana Rad10 (B. bassiana)
[2] = target: T2, Beauveria bassiana photolyase Phr2 (B. bassiana)
[3] = target: T3, Beauveria bassiana Rad1 (B. bassiana)

Row | Binder | binding [1] | binding [2] | binding [3]
1 | B1 | binds | no binding | 
2 | B2 |  | no binding | binds
